# The whole screen tested about 350,000 compounds, of which about 9,900 (2.8%) were called active. Inconclusive means that the source gave no clear call. Such entries were picked first, then a sample of the others. The call rests on the fitted dose curve; in most records, active means well fitted activation curve with a large enough effect; inconclusive means small, poorly fitted or top-dose-only effect; inactive means no such curve, though single readings can be large or run the other way. No potency is given beside an inconclusive call; the fits are too rough.
# Assay: A quantitative high throughput screen for small molecules that induce DNA re-replication in MCF 10a normal breast cells. Further: nearly all actives have a fitted effect of over 50% in size. On activity, positive = re-replication: % of control where 0% means no effect.
# Conditions: MCF 10A DNA re-replication, Hoechst nuclear intensity, 48 h; activity, positive = re-replication: at 46.1 µM (top of the series)
# Potency means the concentration at half of the fitted maximal effect; tags describe the fitted curve by direction and shape.
Compound,"activity, positive = re-replication",Potency
COc1ccc(C(C)=O)cc1COc1ccccc1[N+](=O)[O-],inactive: -0.214%,–
Cc1ccc(C(=O)Nc2ccccc2N2CCCCC2)cc1,–,"inconclusive [activator, partial curve]"
CCc1cc2cc(C(=O)N3CCN(Cc4ccccc4)CC3)sc2s1,–,"inconclusive [activator, single point]"
COCC(=O)N(CCc1ccc(OC)cc1)Cc1nc2ccccc2c(=O)[nH]1,–,"inconclusive [activator, partial curve, poor fit]"
COC(=O)c1c(C(=O)OC)c2cc(C(=O)c3ccccc3)ccn2c1Cl,–,"inconclusive [activator, partial curve, poor fit]"
COc1ccc(NC(=O)CC2Sc3ncnn3C2=O)cc1 (stereo not given),–,"inconclusive [activator, single point]"
CCc1ccc(C(CNC(=O)c2ccc3c(=O)n(-c4ccccc4F)c(=S)[nH]c3c2)N(C)C)cc1 (stereo not given),–,"inconclusive [activator, single point]"
CCS(=O)(=O)N1CCCC(C(=O)NCCCN(C)Cc2ccccc2)C1 (stereo not given),–,"inconclusive [activator, partial curve, poor fit]"
COc1cc2c(cc1OC)-c1cc(N3CCc4ccccc43)nc(=O)n1CC2,–,"inconclusive [activator, single point]"
COCOc1ccc(/C=C/C(=O)c2c(OCOC)cc(OCOC)c(CC=C(C)C)c2O)cc1OCOC,–,"inconclusive [activator, full curve, poor fit]"
Cc1cc(C)c2c(CC(=O)NCc3ccco3)coc2c1,–,"inconclusive [activator, single point]"
CC(=O)c1cccc(NC(=O)CSc2ncc(C(=O)Nc3ccccc3)c(=O)n2C)c1,–,"inconclusive [activator, partial curve, poor fit]"
O=C(COc1ccccc1)NC(NC(=S)Nc1ccccc1O)C(Cl)(Cl)Cl (stereo not given),–,"inconclusive [activator, single point]"
Cc1nn(-c2ccccc2)c2nc(-c3ccco3)cc(C(=O)O)c12,–,"inconclusive [activator, partial curve, poor fit]"
CCCCC(=Nc1ccccc1OC)C1=C(O)CC(c2ccccc2)CC1=O (stereo not given),inactive: 16.4%,–
Cc1ccc2nc(N/N=C\c3ccc([N+](=O)[O-])o3)nc(-c3ccccc3)c2c1,–,"inconclusive [activator, single point]"
O=c1cnnc(Nc2cccc(F)c2)[nH]1,–,"inconclusive [activator, single point]"
N#Cc1c(NCCO)ccc([N+](=O)[O-])c1NCCO,–,"inconclusive [activator, single point]"
CCN1C(=O)c2cccc3c(S(=O)(=O)N4CCNCC4)ccc1c23,–,"inconclusive [activator, partial curve, poor fit]"
CCOc1ccccc1N(CC(=O)Nc1ccccc1F)S(=O)(=O)c1ccccc1,–,active: 0.58 µM
CC(=O)Oc1ccccc1C1=NN(C(=O)/C=C/c2ccccc2)C(c2ccccc2)C1 (stereo not given),–,"inconclusive [activator, partial curve, poor fit]"
Cc1nc2nc(SCC(=O)NCCCN3CCCC3)nn2c(C)c1Cc1ccccc1Cl,inactive: 17.7%,–

Compound,"activity, positive = re-replication",Potency
COc1cccc(/C=N/Nc2nn3cnnc3c3ccccc23)c1,–,"inconclusive [activator, single point]"
Cc1cccc(C)c1N1CCN(S(=O)(=O)c2ccc(F)cc2)CC1,–,"inconclusive [activator, single point]"
N#C/C(=C\Nc1ccccc1O)c1nc2ccccc2o1,–,"inconclusive [activator, single point]"
CCOC(=O)/C(C#N)=C/c1ccc(N2CCN(Cc3ccccc3)CC2)cc1,–,"inconclusive [activator, partial curve]"
Cc1nc2ccccc2c2oc(C(=O)N3CCN(C(=O)c4ccco4)CC3)cc12,inactive: 15%,–
CSc1ccc(/C=N/NC(=O)c2ccc(O)cc2)cc1,inactive: -7.97%,–
O=C(Nc1cc(Cl)cc(Cl)c1)N1CCN(C(=O)C2CCCO2)CC1 (stereo not given),–,"inconclusive [activator, partial curve, poor fit]"
CN(C)CCC(=O)N1c2ccccc2Sc2ccc(Cl)cc21,–,"inconclusive [activator, single point]"
CCOC(=O)c1[nH]c(C)c(C(=O)OC(C)C(=O)Nc2ncc(Cl)cc2Cl)c1C (stereo not given),–,"inconclusive [activator, partial curve, poor fit]"
CCCOC(=O)c1c(NC(=O)CCC(=O)O)sc2c1CCCCC2,inactive: 4.44%,–
O=C(CN1C(=O)NC2(CCCCC2)C1=O)N1CCOCC1,–,"inconclusive [activator, single point]"
Cc1ccnc2nc(C(=O)OCC(=O)N(Cc3ccccc3)C(C)(C)C)nn12,inactive: -4.25%,–
CC(CC(=O)N1CCN(c2ccccc2F)CC1)c1ccccc1 (stereo not given),–,"inconclusive [activator, single point]"
O=C(COC(=O)CNS(=O)(=O)c1ccc(F)c(F)c1F)NCCc1ccccc1,–,"inconclusive [activator, full curve, poor fit]"
CCOc1ccc2nc(SCC(=O)c3ccc(Cl)s3)sc2c1,–,"inconclusive [activator, single point]"
Cc1ccc(/C=N/N2CCN(C3c4ccccc4-c4ccccc43)CC2)s1,–,"inconclusive [activator, single point]"
Cc1nc(N2CCN(c3ccccn3)CC2)c2c(C)c(C(=O)Nc3ccc(Br)cc3C)sc2n1,–,"inconclusive [activator, single point]"
Cc1cc(C)cc(NCc2cc(=O)oc3cc(C)c(O)cc23)c1,–,"inconclusive [activator, single point]"
CC(C)(C)S(=O)(=O)/C(C#N)=N/Nc1ccc(Cl)cc1,–,"inconclusive [activator, partial curve, poor fit]"
COc1ccccc1CNCc1cc(=O)oc2c(C)c(C)ccc12,–,"inconclusive [activator, single point]"
CCOC(=O)c1sc2nc(C)nc(SC(C)C(=O)N(C)c3ccccc3)c2c1C (stereo not given),–,"inconclusive [activator, single point]"
O=C1CCC[C@@H]2Cc3nc4cc5c(cc4cc3[C@@H]3CCN1[C@H]23)OCO5,inactive: -3%,–

Compound,"activity, positive = re-replication",Potency
O=C(Nc1ccc(C(=O)N2CCCC2)cc1)c1ccc(F)cc1Cl,inactive: 1.8%,–
COc1ccc(Cl)cc1C(=O)NNC(=O)CN1C(=O)C2CC=CCC2C1=O (stereo not given),inactive: -1.66%,–
CC1CCCCC1N=C1NC(C)(C)CS1 (stereo not given),–,"inconclusive [activator, single point]"
CCOC(=O)c1ccc(N2C(=O)CC(Sc3nnc(C)s3)C2=O)cc1 (stereo not given),–,"inconclusive [activator, partial curve, poor fit]"
CC1=CCC(C(=O)N/N=C/c2cccs2)C(c2ccc(F)cc2)C1 (stereo not given),–,"inconclusive [activator, single point]"
COc1ccc(NC(=O)Nc2ccc(O)c3ccccc23)cc1,–,"inconclusive [activator, single point]"
CC(C)(CO)Cc1cc(C(C)(C)C)c(O)c(C(C)(C)C)c1,–,"inconclusive [activator, full curve, poor fit]"
COc1cc(/C=N/n2cnnc2)ccc1OC(=O)c1cccnc1,–,"inconclusive [activator, single point]"
O=C(NCc1ccccc1)C1=C[C@@H](c2ccc(C(F)(F)F)cc2)C[C@@H](OCc2ccc(CO)cc2)O1,–,"inconclusive [activator, single point]"
COCCn1c(=N)c(C(=O)NCCc2ccccc2)cc2c(=O)n3cccc(C)c3nc21,–,"inconclusive [activator, partial curve, poor fit]"
CCC(NC(=O)CCCc1ccccc1)c1ccccc1 (stereo not given),–,"inconclusive [activator, single point]"
O=C(Nc1ccc(N2CCN(C(=O)c3ccc(Cl)cc3)CC2)cc1)c1ccc([N+](=O)[O-])o1,–,"inconclusive [activator, single point]"
COc1ccc(S(=O)(=O)Nc2cccc(F)c2)cc1C,inactive: 8.28% [at 9.22 µM],–
O=C(O)c1cc(O)ccc1N=Nc1ccccc1,–,active: 23.1 µM
O=C(CCCN1C(=O)/C(=C\c2ccco2)SC1=S)Nc1ccc2ccccc2c1,–,"inconclusive [activator, partial curve, poor fit]"
COc1ccc(C(=O)C2CCCN(C(=O)C3=CCCC3)C2)cc1OC (stereo not given),inactive: -5.15%,–
O=C(CN1CCN(S(=O)(=O)c2ccccc2F)CC1)Nc1ccccc1C(=O)c1ccccc1,–,"inconclusive [activator, single point]"
O=S(=O)(NCCc1csc(-c2cccnc2)n1)c1ccc(Cl)s1,–,"inconclusive [activator, partial curve, poor fit]"
CCc1ccc(N(CC(=O)Nc2nc3ccc(C)cc3s2)S(=O)(=O)c2c(C)noc2C)cc1,–,"inconclusive [activator, partial curve, poor fit]"
O=C(N/N=C/c1ccc[nH]1)c1ccc([N+](=O)[O-])cc1,inactive: -2.32%,–
COc1ccc(S(=O)(=O)N2CCCCCC2)cc1C(=O)N(C)CCOc1ccc(Cl)cc1,–,"inconclusive [activator, single point]"

# Reference: PubChem BioAssay AID624296 (National Center for Advancing Translational Sciences (NCATS), 2012)
